The text below walks through data of a collection of fitness landscapes (doi:10.1016/j.celrep.2020.107928).

The full ranking holds about 81,000 sequences; the median of “one-hybrid fitness for binding parS DNA” is about -0.17, and the highest 2% start at about 0.51. The list shows a part of the results.

To fix the notation:
B1: Caulobacter ParB omega fusion; a variant is named by its letters at X, in order, B8GW30 (parent)
chain: MESVVVGEPGMSEGRRGLGRGLSALLGEVDAAPAQAPGEQLGGSREAPIEILQRNPDQPRRTFREEDLEDLSNSIREKGVLQPILVRPSPDTAGEYQIVAGERAWRAAQRAGLKTVPIMVRELDDLAVLEIGIIENVQRADLNVLEEALSYKVLMEKFERTQENIAQTIGKSXSHVANXMRLLXLPDEVQSYLVSGELTAXHARAIAAAADPVALAKQIIEGGLSVRETEALARKAPNLSAGKSKGGRPPRVKDTDTQALESDLSSVLGLDVSIDHRGSTGTLTITYATLEQLDDLCNRLTRGI

Variants of B1 are the subject of this assay. The experiment in a line: one-hybrid fitness for binding parS DNA (scaled: cognate 1, non-cognate 0); higher = stronger binding. Particulars: with parS DNA site. A digest of the protocol: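 Selection: bacterial one-hybrid in E. coli USO, HIS3 reporter with the site 19 bp from the promoter, 48 hours at 37°C on M9-minus-histidine plus 0.1 mM IPTG and 5 mM 3-AT. Libraries were Caulobacter ParB with four randomised specificity codons, sequenced on Illumina before and after selection. Fitness is the rescaled log change in variant-to-wild-type read ratio, anchored to the cognate and non-cognate sites.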
Regarding NTNQ, the “one-hybrid fitness for binding parS DNA” value is at most 0.2.

Regarding MCMR, the “one-hybrid fitness for binding parS DNA” value was at most 0.2.

TLHG: the “one-hybrid fitness for binding parS DNA” value is at most 0.2.

For HSHM, the “one-hybrid fitness for binding parS DNA” value was at most 0.2.

On to QHSS, for which the “one-hybrid fitness for binding parS DNA” value is at most 0.2.

In the case of KPLD, the “one-hybrid fitness for binding parS DNA” value is at most 0.2.

Regarding FSLC, the “one-hybrid fitness for binding parS DNA” value was at most 0.2.

Turning to VVQF, the “one-hybrid fitness for binding parS DNA” value was at most 0.2.

On to NVGS, for which the “one-hybrid fitness for binding parS DNA” value is at most 0.2.

As to VAQW, the “one-hybrid fitness for binding parS DNA” value is at most 0.2.

With PPTR, the “one-hybrid fitness for binding parS DNA” value was at most 0.2.

Turning to PNPL, the “one-hybrid fitness for binding parS DNA” value was at most 0.2.

Take LDCG: the “one-hybrid fitness for binding parS DNA” value is at most 0.2.

For NVLW, the “one-hybrid fitness for binding parS DNA” value was at most 0.2.

With KMQC, the “one-hybrid fitness for binding parS DNA” value was at most 0.2.

With CMRT, the “one-hybrid fitness for binding parS DNA” value is at most 0.2.

Consider REFG, for which the “one-hybrid fitness for binding parS DNA” value was at most 0.2.

For VMAV, the “one-hybrid fitness for binding parS DNA” value is at most 0.2.

For SLIG, the “one-hybrid fitness for binding parS DNA” value is at most 0.2.

Consider TRHE, for which the “one-hybrid fitness for binding parS DNA” value was at most 0.2.

Take SCKK: the “one-hybrid fitness for binding parS DNA” value is at most 0.2.

As for MHPL, the “one-hybrid fitness for binding parS DNA” value was at most 0.2.

AVPE: the “one-hybrid fitness for binding parS DNA” value was at most 0.2.

TMPC: the “one-hybrid fitness for binding parS DNA” value is at most 0.2.

Consider CILL, for which the “one-hybrid fitness for binding parS DNA” value is at most 0.2.

With KSRH, the “one-hybrid fitness for binding parS DNA” value is at most 0.2.

Take DKNT: the “one-hybrid fitness for binding parS DNA” value was at most 0.2.

As for ALPT, the “one-hybrid fitness for binding parS DNA” value is at most 0.2.

Consider LVIC, for which the “one-hybrid fitness for binding parS DNA” value is at most 0.2.

Turning to WYAS, the “one-hybrid fitness for binding parS DNA” value was at most 0.2.

For SFMH, the “one-hybrid fitness for binding parS DNA” value is at most 0.2.

Consider NNNL, for which the “one-hybrid fitness for binding parS DNA” value is at most 0.2.

As to GRLY, the “one-hybrid fitness for binding parS DNA” value was at most 0.2.

Take PHEF: the “one-hybrid fitness for binding parS DNA” value is at most 0.2.

As for PLLE, the “one-hybrid fitness for binding parS DNA” value is at most 0.2.

Regarding RFHM, the “one-hybrid fitness for binding parS DNA” value was determined as 0.301.

Take QACC: the “one-hybrid fitness for binding parS DNA” value is at most 0.2.

As for PKRG, the “one-hybrid fitness for binding parS DNA” value is at most 0.2.

Consider ITYM, for which the “one-hybrid fitness for binding parS DNA” value was at most 0.2.

Take NRSI: the “one-hybrid fitness for binding parS DNA” value is at most 0.2.

Regarding NLDH, the “one-hybrid fitness for binding parS DNA” value is at most 0.2.

PIEG: the “one-hybrid fitness for binding parS DNA” value was at most 0.2.

SMLI: the “one-hybrid fitness for binding parS DNA” value was at most 0.2.

With DGIM, the “one-hybrid fitness for binding parS DNA” value was at most 0.2.

On to PSHY, for which the “one-hybrid fitness for binding parS DNA” value was at most 0.2.

ICNL: the “one-hybrid fitness for binding parS DNA” value is at most 0.2.

Regarding RCVG, the “one-hybrid fitness for binding parS DNA” value stood at 0.991.

As for WVNG, the “one-hybrid fitness for binding parS DNA” value is at most 0.2.

LLWV: the “one-hybrid fitness for binding parS DNA” value was at most 0.2.

QFNI: the “one-hybrid fitness for binding parS DNA” value was at most 0.2.

As for WLVA, the “one-hybrid fitness for binding parS DNA” value is at most 0.2.

Consider CKDR, for which the “one-hybrid fitness for binding parS DNA” value is at most 0.2.

Consider VWLP, for which the “one-hybrid fitness for binding parS DNA” value is at most 0.2.

Turning to KCQR, the “one-hybrid fitness for binding parS DNA” value was at most 0.2.

Regarding EPTT, the “one-hybrid fitness for binding parS DNA” value was at most 0.2.

Take WCAC: the “one-hybrid fitness for binding parS DNA” value is at most 0.2.

Consider MMTS, for which the “one-hybrid fitness for binding parS DNA” value was at most 0.2.

Turning to PGPR, the “one-hybrid fitness for binding parS DNA” value is at most 0.2.

For the variant AALL, the “one-hybrid fitness for binding parS DNA” value is at most 0.2.

As to CQRY, the “one-hybrid fitness for binding parS DNA” value is at most 0.2.

In the case of PKAK, the “one-hybrid fitness for binding parS DNA” value was at most 0.2.

For the variant TKYM, the “one-hybrid fitness for binding parS DNA” value was at most 0.2.

Regarding QTLN, the “one-hybrid fitness for binding parS DNA” value is at most 0.2.

For the variant PNAQ, the “one-hybrid fitness for binding parS DNA” value was at most 0.2.

As to CLDE, the “one-hybrid fitness for binding parS DNA” value was at most 0.2.

Take QGCI: the “one-hybrid fitness for binding parS DNA” value is at most 0.2.

For the variant SAGI, the “one-hybrid fitness for binding parS DNA” value was at most 0.2.

With MLIY, the “one-hybrid fitness for binding parS DNA” value is at most 0.2.

Turning to YSTM, the “one-hybrid fitness for binding parS DNA” value is at most 0.2.

For PTLA, the “one-hybrid fitness for binding parS DNA” value is at most 0.2.

In the case of KVMR, the “one-hybrid fitness for binding parS DNA” value was at most 0.2.

Take AATP: the “one-hybrid fitness for binding parS DNA” value is at most 0.2.

Take TRLD: the “one-hybrid fitness for binding parS DNA” value is at most 0.2.

As to HSVG, the “one-hybrid fitness for binding parS DNA” value was at most 0.2.

For QRLM, the “one-hybrid fitness for binding parS DNA” value is at most 0.2.

On to RDNV, for which the “one-hybrid fitness for binding parS DNA” value was at most 0.2.

As for SVHG, the “one-hybrid fitness for binding parS DNA” value was at most 0.2.

Regarding KDTP, the “one-hybrid fitness for binding parS DNA” value was at most 0.2.

For the variant RTWV, the “one-hybrid fitness for binding parS DNA” value is at most 0.2.

For WPPI, the “one-hybrid fitness for binding parS DNA” value is at most 0.2.

Take VCNR: the “one-hybrid fitness for binding parS DNA” value is at most 0.2.

As for VEPF, the “one-hybrid fitness for binding parS DNA” value was at most 0.2.

As for LGWC, the “one-hybrid fitness for binding parS DNA” value is at most 0.2.

With NHYF, the “one-hybrid fitness for binding parS DNA” value is at most 0.2.

Consider HART, for which the “one-hybrid fitness for binding parS DNA” value is at most 0.2.

Regarding VIRT, the “one-hybrid fitness for binding parS DNA” value was at most 0.2.

CMHG: the “one-hybrid fitness for binding parS DNA” value is at most 0.2.

VGSV: the “one-hybrid fitness for binding parS DNA” value is at most 0.2.

Turning to DATA, the “one-hybrid fitness for binding parS DNA” value is at most 0.2.

As for NTGC, the “one-hybrid fitness for binding parS DNA” value is at most 0.2.

Turning to HAPS, the “one-hybrid fitness for binding parS DNA” value was at most 0.2.

Take LYSS: the “one-hybrid fitness for binding parS DNA” value is at most 0.2.

In the case of GPGA, the “one-hybrid fitness for binding parS DNA” value was at most 0.2.

On to QCTF, for which the “one-hybrid fitness for binding parS DNA” value is at most 0.2.

For DMYA, the “one-hybrid fitness for binding parS DNA” value is at most 0.2.

In the case of PIFR, the “one-hybrid fitness for binding parS DNA” value was at most 0.2.

As to LHEL, the “one-hybrid fitness for binding parS DNA” value was at most 0.2.

HAQR: the “one-hybrid fitness for binding parS DNA” value was at most 0.2.

On to NQDT, for which the “one-hybrid fitness for binding parS DNA” value was at most 0.2.

In the case of RVHF, the “one-hybrid fitness for binding parS DNA” value amounted to 0.211.

As to VRKG, the “one-hybrid fitness for binding parS DNA” value was at most 0.2.

Take WHTS: the “one-hybrid fitness for binding parS DNA” value was at most 0.2.

In the case of RRLG, the “one-hybrid fitness for binding parS DNA” value was 0.794.

Take PRYK: the “one-hybrid fitness for binding parS DNA” value is at most 0.2.

TPKL: the “one-hybrid fitness for binding parS DNA” value is at most 0.2.

Consider KVKE, for which the “one-hybrid fitness for binding parS DNA” value is at most 0.2.

Take PAQC: the “one-hybrid fitness for binding parS DNA” value is at most 0.2.

Take TLIR: the “one-hybrid fitness for binding parS DNA” value was at most 0.2.

As to CWAY, the “one-hybrid fitness for binding parS DNA” value was at most 0.2.

QPPQ: the “one-hybrid fitness for binding parS DNA” value was at most 0.2.

Regarding PAVK, the “one-hybrid fitness for binding parS DNA” value is at most 0.2.

INYG: the “one-hybrid fitness for binding parS DNA” value is at most 0.2.

Take LYVP: the “one-hybrid fitness for binding parS DNA” value was 0.237.

With VKNT, the “one-hybrid fitness for binding parS DNA” value is at most 0.2.

Consider TAQD, for which the “one-hybrid fitness for binding parS DNA” value was at most 0.2.

Turning to FESD, the “one-hybrid fitness for binding parS DNA” value was at most 0.2.

In the case of LHKI, the “one-hybrid fitness for binding parS DNA” value was at most 0.2.

Take NRCV: the “one-hybrid fitness for binding parS DNA” value is at most 0.2.

Turning to ARGG, the “one-hybrid fitness for binding parS DNA” value is at most 0.2.

For the variant AIES, the “one-hybrid fitness for binding parS DNA” value was at most 0.2.

In the case of KVKV, the “one-hybrid fitness for binding parS DNA” value was at most 0.2.

Turning to RGQE, the “one-hybrid fitness for binding parS DNA” value is at most 0.2.

On to SGAY, for which the “one-hybrid fitness for binding parS DNA” value is at most 0.2.

In the case of VYLV, the “one-hybrid fitness for binding parS DNA” value is at most 0.2.

Regarding RWQM, the “one-hybrid fitness for binding parS DNA” value was at most 0.2.

With KRNG, the “one-hybrid fitness for binding parS DNA” value is at most 0.2.

For KTKM, the “one-hybrid fitness for binding parS DNA” value was at most 0.2.

Take VSDC: the “one-hybrid fitness for binding parS DNA” value was at most 0.2.

On to MEDR, for which the “one-hybrid fitness for binding parS DNA” value is at most 0.2.

In the case of IRKC, the “one-hybrid fitness for binding parS DNA” value is at most 0.2.

Regarding GRAM, the “one-hybrid fitness for binding parS DNA” value was at most 0.2.

For FSRK, the “one-hybrid fitness for binding parS DNA” value was at most 0.2.

With TLQM, the “one-hybrid fitness for binding parS DNA” value is at most 0.2.

With RWFN, the “one-hybrid fitness for binding parS DNA” value was at most 0.2.

As for NSIA, the “one-hybrid fitness for binding parS DNA” value was at most 0.2.

Take TWII: the “one-hybrid fitness for binding parS DNA” value was at most 0.2.

Turning to SRFV, the “one-hybrid fitness for binding parS DNA” value is at most 0.2.

Consider AEQR, for which the “one-hybrid fitness for binding parS DNA” value is at most 0.2.

On to RDRR, for which the “one-hybrid fitness for binding parS DNA” value was at most 0.2.

With SRMC, the “one-hybrid fitness for binding parS DNA” value is at most 0.2.

Turning to REFV, the “one-hybrid fitness for binding parS DNA” value was at most 0.2.

As for RKEM, the “one-hybrid fitness for binding parS DNA” value stood at 0.262.

For the variant AWSY, the “one-hybrid fitness for binding parS DNA” value was at most 0.2.

For DQPW, the “one-hybrid fitness for binding parS DNA” value was at most 0.2.

As to KYHT, the “one-hybrid fitness for binding parS DNA” value is at most 0.2.

For the variant MYHV, the “one-hybrid fitness for binding parS DNA” value is at most 0.2.

Consider WFRG, for which the “one-hybrid fitness for binding parS DNA” value is at most 0.2.

As to SVGK, the “one-hybrid fitness for binding parS DNA” value is at most 0.2.

Consider MASR, for which the “one-hybrid fitness for binding parS DNA” value was at most 0.2.

On to YRFY, for which the “one-hybrid fitness for binding parS DNA” value was at most 0.2.

For CRDT, the “one-hybrid fitness for binding parS DNA” value is at most 0.2.

QKIA: the “one-hybrid fitness for binding parS DNA” value was at most 0.2.

As to PCYS, the “one-hybrid fitness for binding parS DNA” value was at most 0.2.
